The IC50 comes from the fitted curve, where viability falls to half of the control; a fit beyond the top or the lowest dose is shown as a bound at that dose. For AUC the same curve is integrated over the 256-fold range of doses and scaled to a fraction: 1 means no effect, lower means more sensitive. An inferred top dose is not printed in the source and was worked back from the curve model. For some assays here: An entry number marks a drug with two screens in the source, which often give different values.
Assays:
Assay in all cases: Viability of human cancer cell lines after 72 h of drug (GDSC screen)
SB-525334 = compound: Cc1cccc(-c2[nH]c(C(C)(C)C)nc2-c2ccc3nccnc3c2)n1 [SB-525334]; settings: top dose 20 µM; top dose inferred
Method: (§1)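 Human cancer cell lines in 384-well plates, medium with 10% serum, drug for 72 h over a 256-fold dose range (nine 2-fold or five 4-fold steps up to the top dose). Adherent lines were fixed and stained with the nucleic acid dye Syto60, suspension lines read with resazurin; signal relative to control wells, capped at 0 and 100%. One two-parameter sigmoid per drug and line, fitted in a mixed model over all curves with the slope shared within a line.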

HG-5-113-01 = compound: CNC(=O)c1ccc(Nc2cc(Nc3ccccc3S(=O)(=O)C(C)C)c3cc[nH]c3n2)nc1 [HG-5-113-01]; settings: top dose 10 µM; top dose inferred
Method: as §1

Olaparib = compound: O=C(c1cc(Cc2n[nH]c(=O)c3ccccc23)ccc1F)N1CCN(C(=O)C2CC2)CC1 [Olaparib]
Method: as §1

Shikonin = compound: CC(C)=CC[C@@H](O)C1=CC(=O)c2c(O)ccc(O)c2C1=O [Shikonin]; settings: top dose 16 µM; top dose inferred
Method: as §1

BMS-536924 = compound: Cc1cc(N2CCOCC2)cc2[nH]c(-c3c(NC[C@@H](O)c4cccc(Cl)c4)cc[nH]c3=O)nc12 [BMS-536924]; settings: top dose 4 µM; screen: GDSC drug entry 1091; top dose inferred
Method: as §1

VX-702 = compound: NC(=O)c1ccc(N(C(N)=O)c2c(F)cccc2F)nc1-c1ccc(F)cc1F [VX-702]; settings: top dose 2 µM; top dose inferred
Method: as §1

Wee1 inhibitor 681640 = compound: O=C1NC(=O)c2c1c(-c1ccccc1Cl)cc1[nH]c3ccc(O)cc3c21 [Wee1 inhibitor 681640]; settings: top dose 2 µM; top dose inferred
Method: as §1

BIRB 0796 = compound: Cc1ccc(-n2nc(C(C)(C)C)cc2NC(=O)Nc2ccc(OCCN3CCOCC3)c3ccccc23)cc1 [BIRB 0796]; settings: top dose 10 µM; top dose inferred
Method: as §1

[1] = top dose 10 µM, screen: GDSC drug entry 1495
[2] = top dose 5 µM, screen: GDSC drug entry 1017, top dose inferred

Cell Line: Hs940-T (melanoma, adherent)
- AUC (SB-525334): 0.984
- IC50 (SB-525334): > 20 µM
- AUC (HG-5-113-01): 0.868
- IC50 (HG-5-113-01): > 10 µM
- AUC (Olaparib; [1]): 0.959
- IC50 (Olaparib; [1]): > 10 µM
- AUC (Shikonin): 0.27
- IC50 (Shikonin): 0.189 µM
- AUC (BMS-536924): 0.961
- IC50 (BMS-536924): > 4 µM

Cell Line: IM-95 (stomach, adherent)
- AUC (SB-525334): 0.954
- IC50 (SB-525334): > 20 µM
- AUC (HG-5-113-01): 0.891
- IC50 (HG-5-113-01): > 10 µM
- AUC (Shikonin): 0.48
- IC50 (Shikonin): 0.877 µM
- AUC (BMS-536924): 0.949
- IC50 (BMS-536924): > 4 µM

Cell Line: NCI-H196 (small cell lung carcinoma, adherent)
- AUC (SB-525334): 0.985
- IC50 (SB-525334): > 20 µM
- AUC (HG-5-113-01): 0.946
- IC50 (HG-5-113-01): > 10 µM
- AUC (Olaparib; [1]): 0.987
- IC50 (Olaparib; [1]): > 10 µM
- AUC (Shikonin): 0.506
- IC50 (Shikonin): 1.04 µM
- AUC (BMS-536924): 0.987
- IC50 (BMS-536924): > 4 µM

Cell Line: NCI-H441 (lung adenocarcinoma, adherent)
- AUC (SB-525334): 0.975
- IC50 (SB-525334): > 20 µM
- AUC (HG-5-113-01): 0.818
- IC50 (HG-5-113-01): 8.91 µM
- AUC (VX-702): 0.976
- IC50 (VX-702): > 2 µM
- AUC (Shikonin): 0.74
- IC50 (Shikonin): 6.61 µM
- AUC (BMS-536924): 0.86
- IC50 (BMS-536924): > 4 µM

Cell Line: NCI-H1915 (large cell lung carcinoma, adherent)
- AUC (SB-525334): 0.798
- IC50 (SB-525334): 9.7 µM
- AUC (HG-5-113-01): 0.887
- IC50 (HG-5-113-01): > 10 µM
- AUC (Olaparib; [1]): 0.95
- IC50 (Olaparib; [1]): > 10 µM
- AUC (Shikonin): 0.699
- IC50 (Shikonin): 3.68 µM
- AUC (BMS-536924): 0.978
- IC50 (BMS-536924): > 4 µM

Cell Line: NCI-H2122 (lung adenocarcinoma, adherent)
- AUC (SB-525334): 0.977
- IC50 (SB-525334): > 20 µM
- AUC (HG-5-113-01): 0.648
- IC50 (HG-5-113-01): 1.56 µM
- AUC (VX-702): 0.989
- IC50 (VX-702): > 2 µM
- AUC (Shikonin): 0.756
- IC50 (Shikonin): 5.16 µM
- AUC (BMS-536924): 0.854
- IC50 (BMS-536924): 2.83 µM

Cell Line: SCC-9 (head and neck, adherent)
- AUC (SB-525334): 0.978
- IC50 (SB-525334): > 20 µM
- AUC (VX-702): 0.981
- IC50 (VX-702): > 2 µM
- AUC (Olaparib; [2]): 0.981
- IC50 (Olaparib; [2]): > 5 µM
- AUC (Olaparib; [1]): 0.875
- IC50 (Olaparib; [1]): > 10 µM
- AUC (Wee1 inhibitor 681640): 0.925
- IC50 (Wee1 inhibitor 681640): > 2 µM
- AUC (Shikonin): 0.272
- IC50 (Shikonin): 0.184 µM
- AUC (BMS-536924): 0.795
- IC50 (BMS-536924): 2.47 µM
- AUC (BIRB 0796): 0.95
- IC50 (BIRB 0796): > 10 µM

Cell Line: SCC-25 (head and neck, adherent)
- AUC (SB-525334): 0.929
- IC50 (SB-525334): > 20 µM
- AUC (VX-702): 0.984
- IC50 (VX-702): > 2 µM
- AUC (Olaparib; [2]): 0.984
- IC50 (Olaparib; [2]): > 5 µM
- AUC (Olaparib; [1]): 0.955
- IC50 (Olaparib; [1]): > 10 µM
- AUC (Wee1 inhibitor 681640): 0.966
- IC50 (Wee1 inhibitor 681640): > 2 µM
- AUC (Shikonin): 0.347
- IC50 (Shikonin): 0.353 µM
- AUC (BMS-536924): 0.865
- IC50 (BMS-536924): > 4 µM
- AUC (BIRB 0796): 0.982
- IC50 (BIRB 0796): > 10 µM

Cell Line: SISO (cervix, adherent)
- AUC (SB-525334): 0.948
- IC50 (SB-525334): > 20 µM
- AUC (VX-702): 0.988
- IC50 (VX-702): > 2 µM
- AUC (Olaparib; [2]): 0.987
- IC50 (Olaparib; [2]): > 5 µM
- AUC (Olaparib; [1]): 0.863
- IC50 (Olaparib; [1]): 8.03 µM
- AUC (Wee1 inhibitor 681640): 0.988
- IC50 (Wee1 inhibitor 681640): > 2 µM
- AUC (Shikonin): 0.425
- IC50 (Shikonin): 0.628 µM
- AUC (BMS-536924): 0.886
- IC50 (BMS-536924): > 4 µM
- AUC (BIRB 0796): 0.965
- IC50 (BIRB 0796): > 10 µM

Cell Line: SK-HEP-1 (liver, adherent)
- AUC (SB-525334): 0.965
- IC50 (SB-525334): > 20 µM
- AUC (VX-702): 0.989
- IC50 (VX-702): > 2 µM
- AUC (Olaparib; [2]): 0.978
- IC50 (Olaparib; [2]): > 5 µM
- AUC (Olaparib; [1]): 0.884
- IC50 (Olaparib; [1]): 9.62 µM
- AUC (Wee1 inhibitor 681640): 0.908
- IC50 (Wee1 inhibitor 681640): > 2 µM
- AUC (Shikonin): 0.399
- IC50 (Shikonin): 0.539 µM
- AUC (BMS-536924): 0.961
- IC50 (BMS-536924): > 4 µM
- AUC (BIRB 0796): 0.989
- IC50 (BIRB 0796): > 10 µM
